The other results are listed elsewhere or left out. These are noisy estimates, calculated here from bound and input reads.
molecular target: T1, Pho4 (S. cerevisiae) (UniProt P07270); assay: relative binding free energy (BET-seq); higher = weaker binding; settings: reference: library average
T1 sequence: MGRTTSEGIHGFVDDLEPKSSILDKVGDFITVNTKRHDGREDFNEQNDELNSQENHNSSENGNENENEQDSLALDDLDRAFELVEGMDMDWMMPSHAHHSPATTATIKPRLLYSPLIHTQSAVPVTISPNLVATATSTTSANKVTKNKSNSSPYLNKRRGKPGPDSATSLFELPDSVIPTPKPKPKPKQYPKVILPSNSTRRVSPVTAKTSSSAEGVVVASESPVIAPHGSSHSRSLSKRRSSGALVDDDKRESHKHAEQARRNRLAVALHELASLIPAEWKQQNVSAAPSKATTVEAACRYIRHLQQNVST

| Sequence | relative binding free energy |
| --- | --- |
| CATAACACGTGGTTTA | 0.03 kcal/mol |
| GCGTGCACGTGTGCTG | -0.06 kcal/mol |
| AGTTGCACGTGATCAG | 0.03 kcal/mol |
| TTCTTCACGTGGTGGC | 0.23 kcal/mol |
| AAGTTCACGTGGAGTG | 0.15 kcal/mol |
| TGGGTCACGTGCGTAG | 0.04 kcal/mol |
| TCTATCACGTGTATTG | 0.08 kcal/mol |
| TTAAGCACGTGTCGAT | -0.03 kcal/mol |
| AGTAACACGTGTGATG | 0.01 kcal/mol |
| GTATGCACGTGCATGT | -0.02 kcal/mol |
| GGTGGCACGTGTTGCG | -0.01 kcal/mol |
| ACGTTCACGTGGTTCG | 0.35 kcal/mol |
| GGTTTCACGTGTAAGA | 0.41 kcal/mol |
| GAATTCACGTGAAGTA | 0.55 kcal/mol |
| TGAGACACGTGGAATT | 0.22 kcal/mol |
| TGTCTCACGTGTGCGG | 0.14 kcal/mol |
| AATATCACGTGTTAAT | 0.07 kcal/mol |
| GCGTACACGTGTGGAG | 0.07 kcal/mol |
| AAGGTCACGTGTATGT | 0.15 kcal/mol |
| ATGTGCACGTGGGCAA | -0.18 kcal/mol |
| GTAAACACGTGGGAGT | 0 kcal/mol |
| GGTATCACGTGATGCT | 0.37 kcal/mol |
| GTGGACACGTGACAGG | -0.02 kcal/mol |
| GTCTTCACGTGTTTTT | 0.4 kcal/mol |
| GAGAGCACGTGCGGTT | -0.14 kcal/mol |

| Sequence | relative binding free energy |
| --- | --- |
| CTGTGCACGTGGTCGT | -0.04 kcal/mol |
| AAGTTCACGTGGGGCA | 0.07 kcal/mol |
| TTCGTCACGTGATTGG | 0.34 kcal/mol |
| GTTATCACGTGTGGTC | 0.2 kcal/mol |
| GTTTTCACGTGGACGG | 0.29 kcal/mol |
| TCTAGCACGTGGGAGT | -0.28 kcal/mol |
| TTTGGCACGTGATGTC | 0.01 kcal/mol |
| CGGCTCACGTGTTGGG | 0.28 kcal/mol |
| GGTTGCACGTGGGTCA | -0.12 kcal/mol |
| TGAATCACGTGAGTTG | 0.22 kcal/mol |
| CAAAGCACGTGTGTTG | 0.03 kcal/mol |
| TACGTCACGTGTTGTA | -0.01 kcal/mol |
| GTAGGCACGTGGGTTT | -0.12 kcal/mol |
| GTGGCCACGTGGAGGC | -0.15 kcal/mol |
| TGCAGCACGTGGTGTC | -0.17 kcal/mol |
| TATTCCACGTGGGTGC | -0.07 kcal/mol |
| TTGTACACGTGCTTTT | 0.02 kcal/mol |
| TTCTACACGTGTTGAT | -0.02 kcal/mol |
| ATTCTCACGTGTTGTT | 0.27 kcal/mol |
| GTATTCACGTGATATG | 0.31 kcal/mol |
| GATGTCACGTGATCTT | 0.28 kcal/mol |
| CGTGGCACGTGAAGGA | 0.17 kcal/mol |
| TTAAGCACGTGGAGGT | -0.22 kcal/mol |
| AGGGCCACGTGTGGTA | -0.06 kcal/mol |
| TTATTCACGTGTTCCT | 0.37 kcal/mol |

| Sequence | relative binding free energy |
| --- | --- |
| AGACTCACGTGTGGTG | 0.2 kcal/mol |
| GATGTCACGTGGTCCG | 0.18 kcal/mol |
| AAACGCACGTGGGGTG | -0.24 kcal/mol |
| CAGGTCACGTGTCGGG | 0.24 kcal/mol |
| GTGTCCACGTGGTGGC | 0.04 kcal/mol |
| TATTGCACGTGTGCAT | -0.02 kcal/mol |
| CATTTCACGTGATGGG | 0.34 kcal/mol |
| GGGACCACGTGTGGTA | -0.01 kcal/mol |
| ATATGCACGTGAGTAG | 0.18 kcal/mol |
| CGCGGCACGTGGGGTC | -0.25 kcal/mol |
| AGCAGCACGTGCGTGG | -0.11 kcal/mol |
| TAGACCACGTGAGGTG | 0.28 kcal/mol |
| CGTTTCACGTGGGATA | 0.14 kcal/mol |
| AGTCACACGTGGTGGT | 0.22 kcal/mol |
| TGGTGCACGTGCGACG | -0.07 kcal/mol |
| GTGGCCACGTGTTGCT | -0.04 kcal/mol |
| CGGGGCACGTGTGGGA | -0.06 kcal/mol |
| AGTGACACGTGTCTGT | -0.03 kcal/mol |
| GTGGACACGTGAACGG | 0.18 kcal/mol |
| CGGGGCACGTGGAGAT | 0 kcal/mol |
| GGTCGCACGTGAGGCG | 0.29 kcal/mol |
| ATTGACACGTGGGATA | -0.15 kcal/mol |
| TGTTACACGTGTAGCA | -0.07 kcal/mol |
| TCGTGCACGTGTTATA | -0.09 kcal/mol |
| TTTGGCACGTGTGGAA | 0.09 kcal/mol |

| Sequence | relative binding free energy |
| --- | --- |
| AAATGCACGTGCTTGT | 0.1 kcal/mol |
| GTGGGCACGTGGTGTC | -0.06 kcal/mol |
| AAAGTCACGTGTGAGG | 0.17 kcal/mol |
| AGTGGCACGTGGAGCC | -0.02 kcal/mol |
| TTTAACACGTGGGTCT | -0.18 kcal/mol |
| GTAGACACGTGGAGGG | 0.02 kcal/mol |
| TGGCTCACGTGTAGCT | 0.25 kcal/mol |
| TTCGTCACGTGTATTT | 0.2 kcal/mol |
| GTATTCACGTGCCGTG | 0.38 kcal/mol |
| AGAATCACGTGTGGTA | 0.12 kcal/mol |
| CGCGGCACGTGGTGAG | -0.22 kcal/mol |
| TGGATCACGTGAGGTG | 0.34 kcal/mol |
| TAAGTCACGTGTATTG | 0.11 kcal/mol |
| TAGGTCACGTGTCTGA | 0.08 kcal/mol |
| GTATGCACGTGTTTTA | -0.07 kcal/mol |
| GGCAGCACGTGTGTAG | -0.12 kcal/mol |
| AAGGTCACGTGTTTTA | 0.12 kcal/mol |
| CTTAGCACGTGGTGGT | -0.16 kcal/mol |
| TGGGACACGTGATAGA | 0.03 kcal/mol |
| GGTGACACGTGTGAAA | 0.22 kcal/mol |
| TGATTCACGTGACGGG | 0.38 kcal/mol |
| GTTGGCACGTGGGCAT | -0.18 kcal/mol |
| TTTTACACGTGGACTA | 0.07 kcal/mol |
| GCGTTCACGTGTAGTG | 0.27 kcal/mol |
| GGGTGCACGTGGAAAG | 0.13 kcal/mol |

| Sequence | relative binding free energy |
| --- | --- |
| TCATACACGTGTGTGG | 0.04 kcal/mol |
| GAGTTCACGTGAGTAG | 0.47 kcal/mol |
| GGCCGCACGTGAAGGG | 0.2 kcal/mol |
| AATATCACGTGGAAGG | 0.19 kcal/mol |
| CGATACACGTGGTGTA | -0.08 kcal/mol |
| GAACGCACGTGCGGTG | 0.03 kcal/mol |
| TAATTCACGTGATGAT | 0.23 kcal/mol |
| AGGTTCACGTGAAAGT | 0.31 kcal/mol |
| TGTATCACGTGTGTTG | 0.15 kcal/mol |
| TGGTACACGTGAGGAT | 0.38 kcal/mol |
| GTCGTCACGTGCGTTT | 0.09 kcal/mol |
| GATTTCACGTGCCTTT | 0.45 kcal/mol |
| AGTGGCACGTGTATTG | -0.01 kcal/mol |
| ATTAGCACGTGGGTTA | -0.17 kcal/mol |
| TGTTACACGTGGTTCA | 0.04 kcal/mol |
| GCGAGCACGTGGTGGG | -0.2 kcal/mol |
| CGTGTCACGTGTTTGA | 0.07 kcal/mol |
| GGAGTCACGTGTGGTA | 0.18 kcal/mol |
| AAGGGCACGTGAAGCG | 0.21 kcal/mol |
| ATGAGCACGTGGGAGA | -0.21 kcal/mol |
| AATTTCACGTGGTTGT | 0.25 kcal/mol |
| TGAGGCACGTGAGCTG | 0.07 kcal/mol |
| GGTTTCACGTGTTAGA | 0.3 kcal/mol |
| GGTCGCACGTGGATCG | 0.02 kcal/mol |
| TGCGGCACGTGTAAAT | 0.14 kcal/mol |

| Sequence | relative binding free energy |
| --- | --- |
| GGGGGCACGTGTTACT | 0.06 kcal/mol |
| GAGATCACGTGGGGTA | 0.15 kcal/mol |
| GCTTGCACGTGAGGGT | 0.27 kcal/mol |
| TTATACACGTGTGTGG | 0.13 kcal/mol |
| CGGAGCACGTGGTAGT | -0.15 kcal/mol |
| TGTTTCACGTGCATGG | 0.15 kcal/mol |
| TTGGACACGTGAAGTT | 0.22 kcal/mol |
| TGAGGCACGTGAGGGG | 0.13 kcal/mol |
| AAAGTCACGTGTACGT | 0.22 kcal/mol |
| TGAAGCACGTGATTGG | 0.06 kcal/mol |
| TAGATCACGTGGGTAT | -0.05 kcal/mol |
| TGTTTCACGTGCGGCA | 0.27 kcal/mol |
| AGTATCACGTGTGAGA | 0.07 kcal/mol |
| GTATTCACGTGGAAGT | 0.33 kcal/mol |
| GGGAGCACGTGCAGTG | 0.07 kcal/mol |
| GGCTTCACGTGCGGTG | 0.28 kcal/mol |
| TCTGTCACGTGTTATG | 0.03 kcal/mol |
| GAGTTCACGTGTTGGC | 0.23 kcal/mol |
| GTTTTCACGTGCCGGG | 0.34 kcal/mol |
| TCACTCACGTGTGGGA | 0.29 kcal/mol |
| AGAGACACGTGATGTG | 0.17 kcal/mol |
